Over roughly 2,700 sequences, “arbitrary fluorescence units” has its median near 4,100; the highest 2% begin near 54,000. The list shows a part of the results.

For this test, the target named is T1, ETS1 (UniProt P14921).
T1 sequence: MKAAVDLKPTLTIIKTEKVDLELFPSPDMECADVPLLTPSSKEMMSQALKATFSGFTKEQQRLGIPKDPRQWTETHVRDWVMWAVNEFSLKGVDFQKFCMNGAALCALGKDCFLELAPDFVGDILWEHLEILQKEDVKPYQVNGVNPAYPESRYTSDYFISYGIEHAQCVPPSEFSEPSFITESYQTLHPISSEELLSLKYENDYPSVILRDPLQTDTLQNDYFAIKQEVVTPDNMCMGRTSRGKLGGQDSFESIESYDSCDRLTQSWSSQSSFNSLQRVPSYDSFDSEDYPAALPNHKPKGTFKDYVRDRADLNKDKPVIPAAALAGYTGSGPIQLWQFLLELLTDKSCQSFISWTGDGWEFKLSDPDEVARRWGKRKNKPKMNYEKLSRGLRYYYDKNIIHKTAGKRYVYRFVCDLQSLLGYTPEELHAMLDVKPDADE
The experiment in a line: ETS1 binding intensity (PBM fluorescence) (arbitrary fluorescence units); higher = stronger binding. Conditions: ETS1 concentration 10 nM. The method, then: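 gcPBM on wild-type 36-bp genomic probes with two neighbouring ETS1 sites (4-24 bp apart). Recombinant human ETS1 (10 nM) was detected with anti-ETS1 antibody fluorescence. Values are medians over 3 replicate spots. The probes sit in constant array flanks that are not printed.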
For TCAGGAGGAAGCGCGGCGGCGGCGGCGGAACGCGCG, the ETS1 binding intensity came to 247.

The sequence AAAACATATCCTGTGTTCACTAAGGGGAAGTGGTTT displayed an ETS1 binding intensity of 17500.

AGAGGATGTAAGGAAATGCCTGGATGTCCAGGCAAA: the ETS1 binding intensity came to 503.

The sequence GCCGAGGACACTTCCGCGGGCGGAACCTGCCGGCAC had an ETS1 binding intensity of 5200.

Take CGAGGCCGGAAGTGGCCGTGGAGGCGGAAGTGGCGC: the ETS1 binding intensity turned out to be 39500.

Take AATGACACAGACAGGAAATGGGAAATGGTTCAGGGT: the ETS1 binding intensity was 12600.

The sequence GCTGTGAGGGAGCGGAAGCGGAAACGGCGCCGCTCC gave an ETS1 binding intensity of 8680.

GAGGAGGAAATCACCCCTCCCCCATCATTTCCTGGG registered an ETS1 binding intensity of 846.

GGCAAGCCAGACCGGATTTGGGAAACGTGTTATCAT returned an ETS1 binding intensity of 675.

The sequence GGCCCCGGAAATCGGCTCAACCGTACTTCCGCTCAG displayed an ETS1 binding intensity of 10100.

As to CCACCGGAATTAGCCCACTTAATGGCAGGAACTGTG, the ETS1 binding intensity was 820.

Sequence CGGCTCACGGGAAATGTAGTCCACTTCCCAGAGGGC returned an ETS1 binding intensity of 326.

Sequence TTTTATTTCCGGTTCTGAGGACGCCGCGGAAGCGGG displayed an ETS1 binding intensity of 78400.

In the case of GGAGCACTTCCGCTGGACGCACGCACTTCCGGCCCC, the ETS1 binding intensity worked out at 50800.

Sequence TCGGGCCCTGGCTTCCGTCACTTCCGCCCGTGCCTG gave an ETS1 binding intensity of 14700.

TTTCCTACCCATTTCCTCCACTTCCTGGACACAAAG had an ETS1 binding intensity of 5660.

On to TCTGAGGCGAAACTTCCCCTTCCGGCGACCGCGGAC, for which the ETS1 binding intensity was determined as 4660.

Sequence TGTCCCTTCCTCCAGATGCTGATTGAGGATGTGTCC returned an ETS1 binding intensity of 689.

AACCACTTCCGGTGAGTAGCTTCTACTTCCGGAGAC registered an ETS1 binding intensity of 135000.

AGCACTTCCTGTTTGATCTCTATGATCCATCCTGTT yielded an ETS1 binding intensity of 106000.

CGTAAGCCGGAAGTGCAAACTGCTCTTCCTGTCTCC gave an ETS1 binding intensity of 26300.

Turning to CGAACTTCCTGCCTCAGCCTCCTGAGCTTCCTGAGT, the ETS1 binding intensity is 50100.

The sequence CGCGGTGTCCGGGAAGTGACTCTTCCTGGCAGAGGG came in with an ETS1 binding intensity of 2620.

As to TGCTATACCAGGAAACCTCTGTTTCCTGTTCTAGGG, the ETS1 binding intensity came out at 5270.

For CAGAACTCGCTTTTCCGGCCTTCCTGGGGTGGGCTG, the ETS1 binding intensity is 7910.

CGCAGAAACTTCCCGCTCCGACAGGAAACAGCACTT yielded an ETS1 binding intensity of 3450.

Sequence CCGGGGTTCCGGCGCCGCGCGTTTTGGTTCCGGAGT showed an ETS1 binding intensity of 2740.

The sequence GGCAGAGGCAACAGGAAGTGGGAAATGAGTCCCAGG yielded an ETS1 binding intensity of 16000.

GTCCCGGCCACCGGAAGCCCGGAACGGCCACATGGT: the ETS1 binding intensity came out at 9950.

Sequence AGACAATCACATCCCCACTGACTTCCTGCCTTTCCT registered an ETS1 binding intensity of 7280.

On to GGGCACTTCCTGCCCCAAACAATGACAGGAAGGTCC, for which the ETS1 binding intensity was 50100.

In turn, GGCACACGGAAGTGAGGAGCTGGGTTTCCTCCCATC returned an ETS1 binding intensity of 2390.

As for AGTGGTTAGGAAATTGAGAGGCATTTCCGATGAAGA, the ETS1 binding intensity was 443.

In turn, GGGAGAAGTGGCTTCCTGTGGGGAAATGCCCAGAGC registered an ETS1 binding intensity of 12900.

CGAGGCGGTCGCGGAAGTAGAGGAAGCCTTCGCGGT registered an ETS1 binding intensity of 686.

Regarding CGGGCACTTCCGGCGCGAACCGCTACTTCCGGTGCG, the ETS1 binding intensity amounted to 95900.

TCTGCACAGGATGAGTGTTCGGAGGGGAAGTGACTG gave an ETS1 binding intensity of 296.

For GCGAAGCAGGATGCCCTCAACCCACATCCGGCAAAA, the ETS1 binding intensity stood at 6730.

Consider AGTGTGGAGGAAGTGACACCAAAGAGGAAATGCGGG, for which the ETS1 binding intensity worked out at 2260.

Regarding TGCGGTTCACTTCCTTTGGGACAGGAAGTCTTCCCT, the ETS1 binding intensity was 10300.

ACTTTTCATACTTCCTGCTTGAGGAAGCTGCTACTG gave an ETS1 binding intensity of 16500.

As for CTCATGGCAACAGGAACTATTTCCTTTGGCTTATGA, the ETS1 binding intensity was 1800.
